Data from the RNAGym collection of RNA variant scans (doi:10.1093/nar/gkz1192).
The source gives no read counts; variants with many changes may rest on few reads.

B1: CPEB3 Ribozyme (parent)
chain: UAACAGGGGGCCACAGCAGAAGCGUUCACGUCGCAGCCCCUGUCAGAUUCUGGUGAAUCUGCGAAUUCUGCUGUAUAUCUC

Variants of: B1
Assay: self-cleavage, relative activity (ratio to wild type); higher = more cleavage; in vitro, sequencing
In short: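 Barcoded CPEB3 ribozyme mutants, produced by rounds of error-prone PCR, self-cleaved while being transcribed with T7 RNA polymerase for 5 hours at 37°C and during a subsequent 15 min DNase I step before EDTA was added. Sequencing of template-switched cDNA on Illumina gave cleaved and total reads, and DNA sequencing assigned barcodes to variants. Each variant's relative activity is its cleaved/total read fraction divided by the unmutated ribozyme's fraction, averaged across three batches. A variant needed a minimum of 5 reads.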

Variant	self-cleavage
UAACAGGGGGCCACAGCAGAAGCGUUCACGUCGCUGCCCCUGUCAGAUCCUGGUGAAUUAGCGAAUUCUGCCAUAUAUCUC	0.1
UAACAGGGGGCCACAGCAGAAGCGUUCACGUCGCUGCCCCUGUCAGAUCCUCGUGAAUCUGCGAAUUCUGCUGUAUAUCUC	0.08
UAACAGGGGGCCACAGCAGAAGCGUUCACGUCGCUGCCCCUGUCAGAUCCUGGUGAAUCAGCGAAUUCUGCUGUAUAUCAC	0.06
UAACAGGGGGCCACAGCAGAAGCGUUCACGUCGCUGCCCCUGUCAGAUCCUGGUGAAUCUGCGAAUUCUGCUGAAUAUCUC	0.3
UAACAGGGGGCCACAGCAGAAGCGUUCACGUCGCUGCCCCUGUCAGAUGCUGGUGUAUCUGCGAGCUCUGCUGUAUGUCUC	0.05
UAACAGGGGGCCACAGCAGAAGCGUUCACGUCGCUGCCCCUGUCAGAUUCAGGUGGAUCUGCGAAUUCCGCUGUGUAUCUU	0.16
UAACAGGGGGCCACAGCAGAAGCGUUCACGUCGCUGCCCCUGUCAGAUUCAGGUGAUUCUGCGAAUUCUGCUGUAUAUCUC	0.24
UAACAGGGGGCCACAGCAGAAGCGUUCACGUCGCUGCCCCUGUCAGAUUCAGGUGAAUCCGCGAUUUCUGCUGUAUAUCUC	0.14
UAACAGGGGGCCACAGCAGAAGCGUUCACGUCGCUGCCCCUGUCAGAUUCCGGUGAGUCUGCGAAUUCUGCUGCAUAUCUC	0.28
UAACAGGGGGCCACAGCAGAAGCGUUCACGUCGCUGCCCCUGUCAGAUUCCGGUGAAUCUGCGACUUCUGCUGUAUAUCUC	0.44
UAACAGGGGGCCACAGCAGAAGCGUUCACGUCGCUGCCCCUGUCAGAUUCCGGCGAAUCUGCGAAUUCUGCUGUAUAUCUC	0.26
UAACAGGGGGCCACAGCAGAAGCGUUCACGUCGCUGCCCCUGUCAGAUUCUGGAGAAUCUGCGAAUUCUGCUGUAUGUCUC	0.5
UAACAGGGGGCCACAGCAGAAGCGUUCACGUCGCUGCCCCUGUCAGAUUCUGGCGAAUCUGCGAAUUCUGCUGUACAUCUC	0.3
UAACAGGGGGCCACAGCAGAAGCGUUCACGUCGCUGCCCCUGUCAGAUUCUGGGGAGUCUGCGAAUUCUGCUGUAUAUCUC	0.15
UAACAGGGGGCCACAGCAGAAGCGUUCACGUCGCUGCCCCUGUCAGAUUCUGGGGAAUCUGCGUAUCCUACUGCAUAUCUC	0.08
UAACAGGGGGCCACAGCAGAAGCGUUCACGUCGCUGCCCCUGUCAGAUUCUGGGGAAUCUGCGAAUUCUGCUGUACAUCUC	0.32
UAACAGGGGGCCACAGCAGAAGCGUUCACGUCGCUGCCCCUGUCAGAUUCUGGUGAACCUGCGAAUUCUGCUGUGUAUCUC	0.16

Variant	self-cleavage
UAACAGGGGGCCACAGCAGAAGCGUUCACGUCGCUGCCCCUGUCAGAUUCUGGUGAACCCGCGAAUUCUGCUGUAUAUCUC	0.2
UAACAGGGGGCCACAGCAGAAGCGUUCACGUCGCUGCCCCUGUCAGAUUCUGGUGAACCUGCGAAUACAGCUGUAUAUCAC	0.09
UAACAGGGGGCCACAGCAGAAGCGUUCACGUCGCUGCCCCUGUCAGAUUCUGGUGAACCUGCGAAUUCUGCUGUAUAUCAC	0.12
UAACAGGGGGCCACAGCAGAAGCGUUCACGUCGCUGCCCCUGUCAGAUUCUGGUGAAUCAGCGAAUUCUGCCAUAUAACUC	0.19
UAACAGGGGGCCACAGCAGAAGCGUUCACGUCGCUGCCCCUGUCAGAUUCUGGUGAAUCGGCGAGUUCUGCUGUAUAUCUC	0.1
UAACAGGGGGCCACAGCAGAAGCGUUCACGUCGCUGCCCCUGUCAGAUUCUGGUGAAUCUGCGAAAUCUGCAGUAUAUCUC	0.09
UAACAGGGGGCCACAGCAGAAGCGUUCACGUCGCUGCCCCUGUCAGAUUCUGGUGAAUCUGCGAACUCUGCUGUAUUACUC	0.14
UAACAGGGGGCCACAGCAGAAGCGUUCACGUCGCUGCCCCUGUCAGAUUCUGGUGAAUCUGCGAACCCUGCUGUAUAUCUC	0.11
UAACAGGGGGCCACAGCAGAAGCGUUCACGUCGCUGCCCCUGUCAGAUUCUGGUGAAUCUGCGAAUACUGCGGUAUAUCUC	0.1
UAACAGGGGGCCACAGCAGAAGCGUUCACGUCGCUGCCCCUGUCAGAUUCUGGUGAAUCUGCGAAUCCAGCUGUAUAUCUC	0.11
UAACAGGGGGCCACAGCAGAAGCGUUCACGUCGCUGCCCCUGUCAGAUUCUGGUGAAUCUGCGAAUUCAGCCGUAUAUCUC	0.18
UAACAGGGGGCCACAGCAGAAGCGUUCACGUCGCUGCCCCUGUCAGAUUCUGGUGAAUCUGCGAAUUCUGCCGUAUUUCUC	0.56
UAACAGGGGGCCACAGCAGAAGCGUUCACGUCGCUGCCCCUGUCAGAUUCUGGUGAAUCUGCGAAUUCUGCCGUACAUCUC	0.41
UAACAGGGGGCCACAGCAGAAGCGUUCACGUCGCUGCCCCUGUCAGAUUCUGGUGAAUCUGCGAAUUCUGCCGUAUACCUC	0.6
UAACAGGGGGCCACAGCAGAAGCGUUCACGUCGCAACCCCUGUCGGAUUCUGGUGAAUCUGCGAUUUCUGCGGUAUAUCUC	0.06
UAACAGGGGGCCACAGCAGAAGCGUUCACGUCGCAACCCCUGUCGGAUUCUGGUGAAUCUGCGAAUUCUGCUGUAUAUCUU	0.41
UAACAGGGGGCCACAGCAGAAGCGUUCACGUCGCAACCCCUGUCGGAUUCAGGUGAAUCUGCGAAUUCUGCUGUAUAUCUC	0.09
